Assay results taken from PubChem BioAssay AID1814 (Broad Institute, 2009).
Screen size: about 300,000 compounds; about 22,000 (7.3%) were called active. The inconclusive results got no clear call from the source; some entries with a clear call stand among them for comparison. Rule as the data show it: active = activity score below about -60%; inconclusive = mostly about -28% to -61%; inactive = positive scores.

Experiment: Activators via SNCA 5'UTR binding, MLPCN (AID 1814)
Settings: alpha-synuclein 5'UTR reporter, activators screen; hits give low values; tested at 7.5 µM

Row | Structure (SMILES) | activity score
1 | Cc1ccccc1NC(=O)COc1ccc(Br)cc1C | inconclusive: -60.8%
2 | COCCCNc1nc(N)c([N+](=O)[O-])c(Nc2cc(OC)ccc2OC)n1 | inactive: 55.3%
3 | O=C(/C=C/Nc1ccc(Cc2ccc(N/C=C/C(=O)C(F)(F)F)cc2)cc1)C(F)(F)F | inconclusive: -54%
4 | CCC1c2ccc(C)n2CCN1C(=O)Nc1ccc(F)cc1 (centres undefined) | inconclusive: -50.5%
5 | Cn1c(NNC(=O)c2ccc(C(C)(C)C)cc2)cc(=O)n(C)c1=O | inconclusive: -50.9%
6 | Cc1ccc(C)c(C2NC(=O)c3ccccc3N2)c1 (centres undefined) | active: -69.7%
7 | COc1ccc(-c2cc3nc4n(c(=O)c3s2)CCC4)cc1 | inactive: 58.8%
8 | COc1ccc2nc(NC(=O)CCNC(=O)c3ccccc3Cl)sc2c1 | inconclusive: -44.3%
9 | Cc1cc2c(cc1C)/C(=N/NC(=O)c1ccccn1)CCC2 | inconclusive: -60.3%
10 | Cc1ccc(-n2c(C)cc(/C=N/Nc3ccc([N+](=O)[O-])cn3)c2C)c(C)c1 | inconclusive: -37.3%
11 | Oc1ccccc1-c1cc(-c2cccc(F)c2)n[nH]1 | active: -234%
12 | Cc1nc(-c2ccccc2)sc1-c1ccnn1C | active: -111%
13 | c1ccc(CSc2nnc(-c3c[nH]c4ccccc34)o2)cc1 | active: -151%
14 | COc1ccc(C(C(=O)NC2CCCCC2)N(C(=O)CCl)c2cccc(Cl)c2)cc1 (centres undefined) | active: -74.3%
15 | O=[N+]([O-])c1cc(-c2ccc(C(=S)N3CCOCC3)o2)ccc1Cl | active: -72.3%
16 | COc1ccc(Oc2c(Cl)cnn(-c3ccc(Cl)c(Cl)c3)c2=O)cc1 | inactive: 72.7%
17 | COc1ccccc1NCc1nnc(-c2ccccc2)o1 | inconclusive: -59.8%
18 | CCc1ccc(NC(=O)CCc2ccc(C)o2)cc1 | inconclusive: -59.1%
19 | COc1ccc(Nc2nc(N)c(C(=O)c3ccc(F)cc3)s2)cc1 | inactive: 70%
20 | Cc1cc(NC(=O)/C=C/c2cccc(F)c2)n(-c2nc3ccccc3[nH]2)n1 | inconclusive: -57.9%

Row | Structure (SMILES) | activity score
21 | COc1cc(/C=C/C(=O)OCC(=O)Nc2ccc(NC(C)=O)cc2)cc(S(=O)(=O)N2CCc3ccccc32)c1OC | inconclusive: -54.7%
22 | O=C(OCC(=O)c1ccco1)c1ccc2ncsc2c1 | inconclusive: -51%
23 | O=C(/C=C\c1ccccc1)Oc1cccc2cccnc12 | inconclusive: -52.8%
24 | CC(=O)Nc1sc(C)c(C)c1C(=O)OCC(=O)N(CC(C)C)c1c(N)n(Cc2ccccc2)c(=O)[nH]c1=O | inactive: 77.3%
25 | COc1ccc(OC)c(-c2cc(C3CCN(C(=O)OC(C)(C)C)CC3)[nH]n2)c1 | inconclusive: -50.6%
26 | COCCN(CCOC)C(=O)c1ccc(CSc2nc3ccccc3s2)cc1 | inconclusive: -41.9%
27 | O=C(NC1CCCCCC1)C1CCCN(c2ncccn2)C1 (centres undefined) | inconclusive: -56.1%
28 | CC(C)C[C@H](NC(=O)c1nc[nH]c1C(=O)N[C@@H](CC(C)C)C(=O)OC(C)(C)C)C(=O)OCc1ccccc1 | inactive: 60.6%
29 | CCN(Cc1cnn(C)c1)C(=O)c1cc(COc2ccc(F)cc2F)on1 | inconclusive: -45.7%
30 | CC1CCc2nc(/C(C#N)=C/c3ccncc3)sc2C1 (centres undefined) | active: -114%
31 | O=c1c2c(-c3ccccc3)ccnc2[nH]n1-c1ccccc1 | active: -127%
32 | CC(/C=C/c1ccccc1F)=N\NC(=O)c1cccc(F)c1 | active: -139%
33 | CCN(CC)c1ccc(NC(=O)CCCCC(=O)Nc2ccc(N(CC)CC)cc2)cc1 | inactive: 62.8%
34 | O=C(Nc1ccc(OCc2ccccc2)cc1)c1cccs1 | active: -158%
35 | CCOC(=O)Cc1csc(NC(=O)c2ccc3ncsc3c2)n1 | inconclusive: -59.8%
36 | Cc1cc(CNC(=O)Cc2ccccc2)c2ccccc2n1 | inconclusive: -43.7%
37 | COc1ccc(NS(=O)(=O)c2ccc3c(c2)CCN3C(=O)CCC(=O)O)cc1OC | inconclusive: -49.3%
38 | CC(/C=N/NC(=O)Cn1nccc1C)=C\c1ccc(C(C)C)cc1 | inconclusive: -53.2%
39 | Cc1cccc(NC(=O)C(=O)NCC2CCCO2)c1 (centres undefined) | active: -91.6%
40 | NC(=O)c1cc2ccc(O)cc2oc1=NCc1ccccc1 | inconclusive: -55.5%

Row | Structure (SMILES) | activity score
41 | O=C(NCc1ccc(F)cc1)c1cc2c(s1)CCCC2 | inconclusive: -47.1%
42 | Cc1oc(-c2ccc3c(c2)OCCO3)cc1C(=O)NC(Cc1ccccc1)C(=O)O (centres undefined) | inconclusive: -55.7%
43 | Cc1cc(NC(=S)Nc2cccc3ccccc23)n[nH]1 | inconclusive: -51.6%
44 | CCC(=O)Nc1nc(-c2ccc3c(c2)OCCO3)cs1 | active: -136%
45 | Cc1ccc(S(=O)(=O)c2c(N)n(/N=C/c3ccco3)c3nc4ccccc4nc23)cc1 | inconclusive: -43.2%
46 | CC(C)(C)c1ccc(NC(=O)Nc2ccc(OCC(=O)N3CCOCC3)cc2)cc1 | active: -72.3%
47 | O=C(NCC(c1cccnc1)N1CCN(c2ccc(F)cc2)CC1)c1ccco1 (centres undefined) | inconclusive: -35.4%
48 | Cc1ccc(C(=O)CNc2ccccc2)cc1 | inconclusive: -60.4%
49 | COc1ccc(NC(=O)c2nnn(CC(=O)Nc3ccc4c(c3)OCO4)c2N)c(OC)c1 | inconclusive: -38.6%
50 | C=C(C)COc1ccc(-c2[nH]ncc2-c2ccc(Br)cc2)c(O)c1 | inactive: 91.4%
51 | Cc1cc(C(=O)Nc2ncc(C)s2)c2ccccc2n1 | inconclusive: -39.1%
52 | Cc1ccccc1OCCN1C(=O)c2ccccc2C1=O | active: -92.9%
53 | Cc1csc2c(N3CCCCC3)ncnc12 | inconclusive: -52.7%
54 | CCOC(=O)c1c(NC(=O)CN2CCN(C)CC2)sc(C(=O)Nc2ccccc2)c1C | inconclusive: -56%
55 | COc1ccc(OC)c(/C=N/NC(=O)Cc2nc3ccccc3[nH]2)c1 | inconclusive: -22.5%
56 | Clc1ccc(-c2nc3ncccn3c2Cl)cc1 | inconclusive: -61.3%
57 | Nc1ccc(OC(=O)Nc2ccc(O)cc2)cc1 | inactive: 91.4%
58 | CCN1CCc2c(sc(NC(=O)COc3ccccc3)c2C(=O)OC)C1 | inconclusive: -59.6%
59 | C(=N\Nc1nc2ccccc2[nH]1)/c1ccccn1 | inactive: 112%
